Experiment [1] deals with HUA1, yeast two-hybrid fusion (Arabidopsis thaliana) (UniProt Q941Q3). The experiment is described as follows: two-hybrid; yeast EGY48 cotransformed with pGilda and pB42AD constructs; induced with galactose and raffinose; X-gal on plates and ONPG liquid beta-galactosidase assay; empty vectors as negative controls.
The target of experiment [2] is T1, HUA1 (Arabidopsis thaliana) (UniProt Q941Q3).
T1 sequence: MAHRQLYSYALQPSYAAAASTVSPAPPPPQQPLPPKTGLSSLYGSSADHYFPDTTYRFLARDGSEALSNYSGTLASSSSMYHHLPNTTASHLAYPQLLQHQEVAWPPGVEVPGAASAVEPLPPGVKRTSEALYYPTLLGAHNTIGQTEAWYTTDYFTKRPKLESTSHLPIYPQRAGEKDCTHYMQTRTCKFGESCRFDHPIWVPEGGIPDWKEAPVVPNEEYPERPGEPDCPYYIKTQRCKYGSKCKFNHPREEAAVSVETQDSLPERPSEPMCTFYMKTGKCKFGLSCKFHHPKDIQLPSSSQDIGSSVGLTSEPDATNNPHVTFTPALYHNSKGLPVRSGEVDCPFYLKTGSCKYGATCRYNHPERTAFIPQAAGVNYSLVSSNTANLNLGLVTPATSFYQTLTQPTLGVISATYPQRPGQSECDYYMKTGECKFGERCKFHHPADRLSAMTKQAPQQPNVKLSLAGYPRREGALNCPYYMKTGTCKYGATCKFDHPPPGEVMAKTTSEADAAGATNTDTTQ
The experiment is described as follows: split reporter; BiFC in agroinfiltrated Nicotiana benthamiana leaf cells; one protein fused to YFPct, the other to YFPnt; fluorescence seen 72 h after inoculation; reciprocal assays gave the same results; YFPct construct with empty YFPnt gave no signal.

Experiment [3] concerns the target T2, HUA ENHANCER 4 (HEN4) (Arabidopsis thaliana) (UniProt F4KDN0).
T2 sequence: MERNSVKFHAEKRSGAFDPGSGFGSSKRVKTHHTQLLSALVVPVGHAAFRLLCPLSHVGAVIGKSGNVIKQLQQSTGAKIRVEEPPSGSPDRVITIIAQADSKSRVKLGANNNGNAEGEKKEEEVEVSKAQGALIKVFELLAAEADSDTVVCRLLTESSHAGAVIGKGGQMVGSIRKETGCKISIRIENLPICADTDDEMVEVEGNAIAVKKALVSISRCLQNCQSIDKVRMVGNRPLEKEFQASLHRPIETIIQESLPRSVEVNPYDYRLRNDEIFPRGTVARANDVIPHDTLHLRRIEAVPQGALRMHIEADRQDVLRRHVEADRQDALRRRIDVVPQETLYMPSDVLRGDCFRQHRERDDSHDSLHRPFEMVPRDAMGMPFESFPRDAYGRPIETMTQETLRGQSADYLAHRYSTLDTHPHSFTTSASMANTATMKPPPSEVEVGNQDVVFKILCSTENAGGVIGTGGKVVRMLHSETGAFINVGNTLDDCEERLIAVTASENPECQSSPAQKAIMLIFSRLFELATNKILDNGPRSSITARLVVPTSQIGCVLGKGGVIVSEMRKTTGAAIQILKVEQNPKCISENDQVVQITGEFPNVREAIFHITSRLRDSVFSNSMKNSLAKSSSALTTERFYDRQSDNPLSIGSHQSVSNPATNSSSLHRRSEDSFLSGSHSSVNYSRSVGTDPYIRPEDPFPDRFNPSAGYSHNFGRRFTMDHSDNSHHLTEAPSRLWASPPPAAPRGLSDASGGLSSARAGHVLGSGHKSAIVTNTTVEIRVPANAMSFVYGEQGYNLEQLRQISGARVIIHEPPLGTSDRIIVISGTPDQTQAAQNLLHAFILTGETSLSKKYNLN
The description is as above.

Experiment [4] addresses T3, PEPPER (PEP) (Arabidopsis thaliana) (UniProt Q9SZH4).
T3 sequence: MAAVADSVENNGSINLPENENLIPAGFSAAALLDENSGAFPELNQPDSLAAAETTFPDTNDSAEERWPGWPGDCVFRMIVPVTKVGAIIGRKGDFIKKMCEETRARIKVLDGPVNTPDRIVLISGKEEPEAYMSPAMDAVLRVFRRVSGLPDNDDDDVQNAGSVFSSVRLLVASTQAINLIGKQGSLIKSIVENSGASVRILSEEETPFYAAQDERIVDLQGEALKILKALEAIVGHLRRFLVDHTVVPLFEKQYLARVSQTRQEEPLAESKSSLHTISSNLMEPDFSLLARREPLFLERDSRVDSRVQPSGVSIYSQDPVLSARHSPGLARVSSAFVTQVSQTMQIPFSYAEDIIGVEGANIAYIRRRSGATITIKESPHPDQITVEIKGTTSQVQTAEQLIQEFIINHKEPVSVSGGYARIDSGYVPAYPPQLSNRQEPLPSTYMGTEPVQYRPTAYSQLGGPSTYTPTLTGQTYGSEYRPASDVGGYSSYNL
The description is as above.

In experiment [5] the target is FLOWERING LOCUS WITH KH DOMAINS (FLK), yeast two-hybrid fusion (Arabidopsis thaliana) (UniProt Q9SR13). Briefly: two-hybrid; yeast EGY48 cotransformed with pGilda and pB42AD constructs; induced with galactose and raffinose; X-gal on plates and ONPG liquid beta-galactosidase assay; empty vectors as negative controls.
The target in experiment [6] is PEPPER (PEP), yeast two-hybrid fusion (Arabidopsis thaliana) (UniProt Q9SZH4). The experiment is described as above.

Results are given in words; binding and its absence hold for the method and conditions named. For part of these data: In cells and extracts the contact can be indirect. Some entries that bind do so weakly or less than the wild type. For part of these data: Sequences can lack the tags named with a protein.

B1: HUA1, yeast two-hybrid fusion (protein, UniProt Q941Q3 1-524)
chain: T1 sequence
For B1, the binding result in experiment [1] is listed as “binds”.

B2: HUA1 (protein, UniProt Q941Q3 1-524)
chain: T1 sequence
As to B2, the binding entry in experiment [2], in experiment [3] and in experiment [4] was “binds” each time.

B3: HUA ENHANCER 4 (HEN4) (protein, UniProt F4KDN0 1-857)
chain: T2 sequence
For B3, the values for the binding result in experiment [3] and in experiment [4] were “no binding” and “binds”, respectively.

B4: FLOWERING LOCUS WITH KH DOMAINS (FLK), yeast two-hybrid fusion (protein, UniProt Q9SR13 1-577)
chain: MAEAEDQQNFVAHNGDQVPDQGSDELHNGLPYQVHDETLVHQPYEVEDPILEPQQYEVPDPTLEPQQYEVPDQTLEPQQYEVDDQLEYHQYQLQDQANEDVQDHSQDDLQYQPQNQEQFQLQDEAHDQAQYQAQGDVQDHNGDEVQDKVEDEEGIPEHLESLQKSEPEEDATVGGEEKRWPGWPGETVFRMLVPAQKVGSIIGRKGDVIKKIVEETRARIKILDGPPGTTERAVMVSGKEEPESSLPPSMDGLLRVHMRIVDGLDGEASQAPPPSKVSTRLLVPASQAGSLIGKQGGTVKAIQEASACIVRVLGSEDLPVFALQDDRVVEVVGEPTSVHRALELIASHLRKFLVDRSIIPFFENQMQKPTRQMDHMPPPHQSWGPPQGHAPSVGGGGYGHNPPPYMQPPPRHDSYYPPPEMRQPPMEKQPHQGISAYGREPPMNVHVSSAPPMVAQQVTQQMQIPLSYADAVIGTSGSNISYTRRLSGATVTIQETRGVPGEMTVEVSGTGSQVQTAVQLIQNFMAEAGAPAPAQPQTVAPEQQGYNPYATHGSVYAAAPTNPPGGYATDYSSGYGY
Regarding B4, the binding entry in experiment [5] was “binds”.

B5: PEPPER (PEP), yeast two-hybrid fusion (protein, UniProt Q9SZH4 1-495)
chain: T3 sequence
For B5, the binding entry in experiment [6] is given as “binds”.

B6: PEPPER (PEP) (protein, UniProt Q9SZH4 1-495)
chain: T3 sequence
Consider B6, for which the binding entry in experiment [4] was “binds”.

Values taken from publication PMC4450054.
